Measured values reported in PubChem BioAssay AID1460 (National Center for Advancing Translational Sciences (NCATS), 2008).
Among all 270,000 compounds or so, about 5,800 (2.1%) were called active. Inconclusive means that the source gave no clear call. Such entries were picked first, then a sample of the others. The call rests on the fitted dose curve; in most records, active means well fitted inhibition curve with a large enough effect; inconclusive means small, poorly fitted or top-dose-only effect; inactive means flat fitted curve, though single readings scatter. Potencies of inconclusive entries are doubtful fits and often do not repeat.

What follows are compounds tested against Microtubule-associated protein tau (Homo sapiens) (UniProt P10636) (assay: qHTS for Inhibitors of Tau Fibril Formation, Thioflavin T Binding). Settings: recombinant tau K18 P301L (four-repeat tau fragment), heparin-induced fibrillization, ThT fluorescence; series mostly up to 57.4 µM; activity, negative = inhibition: at the top concentration.
Procedure, shortened: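 In this qHTS, human K18 P301L tau is incubated with compound and heparin for 6 hr at 37 C, and Thioflavin T fluorescence then reports fibril load.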
Further: nearly all actives have a fitted effect of over 55% in size.
On the % scale 0 is the no-effect control and ±100 the full control effect; potency means the concentration at half of the fitted maximal effect; tags describe the fitted curve by direction and shape.

Sequence of UniProt P10636 (P10636 whole entry, looked up, the tested form may be a part): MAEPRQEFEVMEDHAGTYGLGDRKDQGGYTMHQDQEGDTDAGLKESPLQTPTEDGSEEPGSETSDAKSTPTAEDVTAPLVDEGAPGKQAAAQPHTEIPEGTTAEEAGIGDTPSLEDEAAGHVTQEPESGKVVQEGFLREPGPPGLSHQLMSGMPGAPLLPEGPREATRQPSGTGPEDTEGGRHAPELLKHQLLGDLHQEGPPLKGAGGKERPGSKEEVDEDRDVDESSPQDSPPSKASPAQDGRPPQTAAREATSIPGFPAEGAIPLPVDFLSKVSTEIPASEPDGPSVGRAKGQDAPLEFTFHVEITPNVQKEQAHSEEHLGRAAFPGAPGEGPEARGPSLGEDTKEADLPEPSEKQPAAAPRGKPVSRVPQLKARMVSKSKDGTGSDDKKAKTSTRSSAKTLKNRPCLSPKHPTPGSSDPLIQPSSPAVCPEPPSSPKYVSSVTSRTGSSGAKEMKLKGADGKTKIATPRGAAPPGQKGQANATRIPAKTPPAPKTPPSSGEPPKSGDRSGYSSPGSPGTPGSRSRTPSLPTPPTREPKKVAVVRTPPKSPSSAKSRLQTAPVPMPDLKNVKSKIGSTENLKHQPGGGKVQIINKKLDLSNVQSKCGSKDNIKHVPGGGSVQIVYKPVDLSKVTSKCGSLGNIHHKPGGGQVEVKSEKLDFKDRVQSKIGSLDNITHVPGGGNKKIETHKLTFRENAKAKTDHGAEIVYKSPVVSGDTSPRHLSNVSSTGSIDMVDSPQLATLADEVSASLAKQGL

| Compound | Potency | activity, negative = inhibition |
| --- | --- | --- |
| N#CC(c1ccccc1O)N1N=C(c2ccccc2)CC1c1ccccc1 (stereo not drawn) | inconclusive: 3.55 µM [inhibitor, partial curve, poor fit] |  |
| O=C(c1cc(COc2ccc(F)cc2Cl)on1)N1CCC(OCc2cccnc2)CC1 | inconclusive: 14.1 µM [inhibitor, partial curve] |  |
| COc1ccc(Cl)cc1C(=O)NCc1nnnn1-c1ccccc1 |  | inactive: -1.3% |
| CCOC(=O)c1nc(N)c(=O)n(-c2ccc(C)cc2)n1 |  | inactive: 12.5% |
| COc1cc(Cl)c(C)cc1NC(=O)Cn1c2ncccc2c(=O)n1-c1ccccc1 |  | inactive: 3.93% |
| COc1ccc(CCNc2cc(C)nc3c(-c4ccc(Cl)cc4)c(C)nn23)cc1OC | inconclusive: 7.08 µM [inhibitor, partial curve] |  |
| CCOC(=O)c1c(C)n(-c2ccc(C)cc2)c2c(CC(C)=O)c(Br)c(OC)c(O)c12 |  | inactive: -9.88% |
| CC(=O)c1c(C)[nH]c(C(=O)NCc2ccccc2)c1C | inconclusive: 44.7 µM [inhibitor, single point] |  |
| O=C(CSc1c2c(nc3cc(Cl)ccc13)CCCC2)N1CCN(c2ccccc2)CC1 | inconclusive: 14.1 µM [inhibitor, partial curve] |  |
| COc1ccc(-n2c(SCc3ccccc3F)nc3c([nH]c4ccccc43)c2=O)cc1OC |  | inactive: -3.13% |
| Cc1onc(-c2ccccc2)c1C(=O)NC(=S)NNC(=O)c1cccnc1 |  | inactive: -14.7% |
| Cn1c(=O)c2c(nc(N3CCCCCC3)n2CCSc2nc3ccccc3o2)n(C)c1=O |  | inactive: -5.85% |
| CCOC(=O)c1c(-c2ccc(C)cc2)csc1NC(=O)c1cc(=O)c2cc(C)cc(C)c2o1 |  | inactive: -17.9% |
| O=C(NCC(c1ccco1)N1CCCCC1)c1ccc2c(c1)S(=O)(=O)c1ccccc1C2=O (stereo not drawn) | inconclusive: 20 µM [inhibitor, single point] |  |
| CC(=C1C(=O)c2ccccc2C1=O)N1CCN(Cc2ccccc2)CC1 | inconclusive: 25.1 µM [inhibitor, partial curve] |  |
| Cc1ccc(OCc2nc(-c3ccccn3)no2)c(Br)c1 | inconclusive: 15.8 µM [inhibitor, partial curve] |  |
| O=C(COc1ccc(/C=N/NS(=O)(=O)c2ccccc2)cc1)N1CCOCC1 |  | inactive: -6.49% |
| O=C(O)CN1C(=O)/C(=C/c2ccc(SCc3ccccc3)o2)SC1=S | active: 12.6 µM |  |
| O=c1c2c3c(sc2ncn1/N=C/c1ccc([N+](=O)[O-])o1)CCCC3 | active: 20 µM |  |
| CCOC(=O)c1noc2ncnc(N3CCN(c4cccc(C(F)(F)F)c4)CC3)c12 |  | inactive: -3.72% |
| Cc1cc(C)c2c(CC(=O)NCCc3ccccc3)coc2c1 |  | inactive: -13.8% |
| CN(C)CCCN(C(=O)c1cccc(N2C(=O)CCC2=O)c1)c1nc2cc3c(cc2s1)OCO3 |  | inactive: 1.75% |
| CCCCCOC(=O)CSc1nc2sc3c(c2c(=O)n1-c1ccccc1)CC(C)(CC)OC3 (stereo not drawn) |  | inactive: -15.8% |

| Compound | Potency | activity, negative = inhibition |
| --- | --- | --- |
| COc1ccccc1C(=O)Oc1ccc(C(C)(C)C)cc1 | inconclusive: 15.8 µM [inhibitor, partial curve] |  |
| O=C1c2ccccc2C(=O)N1CCCCSc1nnc(-c2ccc(OC(F)F)cc2)o1 | inconclusive: 3.98 µM [inhibitor, partial curve] |  |
| CCOc1ccc2nc(NC(=O)c3cnc(C)cn3)sc2c1 | inconclusive: 3.98 µM [inhibitor, partial curve] |  |
| COc1ccc(S(=O)(=O)NCc2ccccc2)cc1 |  | inactive: -6.5% |
| CC(=O)c1cc(NC(=O)c2cccc(C(F)(F)F)c2)c(=O)oc1C | active: 25.1 µM |  |
| CCCN1CCC2(CC1)C(C#N)=C(N)Oc1c2sc2nc(C)cc(C)c12 | inconclusive: 22.4 µM [inhibitor, partial curve] |  |
| COc1cccc(CC2(CO)CCCN(CC3=Cc4cc(Cl)ccc4OC3)C2)c1 (stereo not drawn) | inconclusive: 20 µM [inhibitor, single point] |  |
| COc1ccc(-c2ccc(-c3noc(-c4ccccc4C)n3)c(OC)n2)cc1 | inconclusive: 6.31 µM [inhibitor, partial curve] |  |
| O=C(N/N=C/c1ccc(OCc2ccccc2)cc1)c1ccncc1 | inconclusive: 3.98 µM [inhibitor, full curve, poor fit] |  |
| CCOc1cc(NC(=O)c2ccccn2)c(OCC)cc1NC(=O)CC(C)C |  | inactive: -6.12% |
| COc1ccc(-c2c(C#N)c(C)nc3c2C(=O)c2ccccc2-3)cc1 |  | inactive: 7.03% |
| Cn1c(=O)c2c(nc(N/N=C/c3ccc(OC(=O)c4ccco4)cc3)n2Cc2ccccc2Cl)n(C)c1=O | inconclusive: 8.91 µM [inhibitor, partial curve] |  |
| COc1ccc(Cn2ccn(Cc3cccc(Cl)c3)c(=O)c2=O)cc1 | inconclusive: 14.1 µM [inhibitor, partial curve, poor fit] |  |
| CC(=O)OCC1=C(C(=O)O)N2C(=O)C(NC(=O)c3ccc(COc4ccc(Cl)cc4)o3)C2SC1 (stereo not drawn) | inconclusive: 31.6 µM [inhibitor, partial curve] |  |
| NCCC[C@@H](CC(=O)N[C@@H]1CCCC[C@H]1C(=O)N[C@H](CC(=O)N[C@@H](CCC(=O)O)CC(=O)O)Cc1ccccc1)NC(=O)C[C@H](Cc1c[nH]c2ccccc12)NC(=O)[C@@H]1CCCC[C@H]1N |  | inactive: -11.3% |
| COc1c(C)cccc1C(=O)NC(=S)Nc1cccc2nsnc12 | active: 25.1 µM |  |
| Nc1c(-c2ccccc2)c(CN2CCOCC2)nn1-c1cccc([N+](=O)[O-])c1 | inconclusive: 44.7 µM [inhibitor, single point] |  |
| O=C(NNC1=C(C(=O)C(F)(F)F)CCC1)c1ccncc1 | inconclusive: 10 µM [inhibitor, partial curve] |  |
| COC(=O)[C@@H]1CC[C@H](C)[C@@H](c2ccc(C)cc2)N1C(=O)c1ccc(/C=N\OCC[C@@H]2C=C[C@H](OC(C)=O)[C@H](COC(C)=O)O2)cc1 |  | inactive: 0.388% [at 11.5 µM] |
| N/C(=N\OC(=O)/C=C/c1ccccc1)c1ccccc1 | inconclusive: 7.94 µM [inhibitor, partial curve, poor fit] |  |
| CC(C)Sc1oc(-c2ccco2)nc1S(=O)(=O)c1ccc(F)cc1 | inconclusive: 22.4 µM [inhibitor, single point] |  |
| CC(C)(C)C(=O)OCc1cc(=O)n2nc(C3CC3)sc2n1 |  | inactive: -2.59% |
| Cc1oncc1-c1csc(-c2ccccc2Cl)n1 | inconclusive: 10 µM [inhibitor, partial curve] |  |

| Compound | Potency | activity, negative = inhibition |
| --- | --- | --- |
| CCOC(=O)c1sc(NC(=O)Cn2nnc3sc4c(c3c2=O)CCC(C(C)(C)C)C4)nc1C (stereo not drawn) | inconclusive: 14.1 µM [inhibitor, single point] |  |
| O=Cc1ccc(Oc2cc(-c3ccccc3)nc(-c3ccccc3)n2)cc1 | inconclusive: 10 µM [inhibitor, partial curve, poor fit] |  |
| CC(C)n1c(SCC(=O)Nc2nc3c(s2)CCCC3)nc2c1c(=O)n(C)c(=O)n2C |  | inactive: -7.66% |
| COc1ccc(N2CCN(C(=O)CNC(=O)c3cn(-c4ccccc4OC)c(=O)c4ccccc34)CC2)cc1 | inconclusive: 22.4 µM [inhibitor, partial curve] |  |
| CCOc1cc(/C=C2\SC(=N)N(c3nonc3N)C2=O)ccc1OCCN1CCOCC1 | inconclusive: 8.91 µM [inhibitor, partial curve] |  |
| c1ccc(CN(CCN(Cc2ccccn2)Cc2ccccn2)Cc2ccccn2)nc1 | inconclusive: 11.2 µM [inhibitor, partial curve] |  |
| COC(=O)c1c(C)[nH]c(C(=O)/C=C/c2ccc(C)cc2)c1C | inconclusive: 2.51 µM [inhibitor, full curve] |  |
| CCC(C)c1c(O)nc(SCC(=O)c2ccccc2)[nH]c1=O (stereo not drawn) | inconclusive: 14.1 µM [inhibitor, partial curve] |  |
| CC(C)OC(=O)c1cc2c(ccn2C)n1CC(=O)N(Cc1ccccc1)c1ccc(F)cc1 | inconclusive: 28.2 µM [inhibitor, partial curve, poor fit] |  |
| CN(C)c1ccc(/C=c2\sc3n(c2=O)CCCN=3)cc1 | inconclusive: 15.8 µM [inhibitor, partial curve] |  |
| COc1cc(C(c2c(C)[nH][nH]c2=O)c2c(C)[nH][nH]c2=O)ccc1OC(C)C | inconclusive: 20 µM [inhibitor, partial curve, poor fit] |  |
| COc1cccc(C2/C(=C(/O)c3ccc(C)cc3)C(=O)C(=O)N2Cc2ccco2)c1 (stereo not drawn) |  | inactive: -12.8% |
| O=C1N/C(=C/c2ccc(N3CCOCC3)cc2)C(=O)N1Cc1ccc(F)cc1 | inconclusive: 5.01 µM [inhibitor, full curve] |  |
| O=C1NC(=Nc2ccc(O)cc2)S/C1=C\C=C\c1ccco1 | active: 1.58 µM |  |
| CCOC(=O)c1nnc2cc(-c3ccc(Br)cc3)nn2c1C | inconclusive: 5.01 µM [inhibitor, partial curve] |  |
| O=C(Cc1ccccc1)c1nc2ccccc2s1 |  | inactive: 15.1% |
| Cc1cc(/C=N\NC(=O)COc2cccc3cccnc23)c(C)n1-c1ccc(Br)cc1 | inconclusive: 20 µM [inhibitor, partial curve] |  |
| CCCn1nnc(NC(=O)COc2ccc(C3CCCCC3)cc2)n1 | inconclusive: 22.4 µM [inhibitor, partial curve] |  |
| O=[N+]([O-])c1ccc2nc(SCc3ccccc3Cl)sc2c1 | inconclusive: 20 µM [inhibitor, single point] |  |
| Cc1cccc(S(=O)(=O)c2cn(C)c3cc(N4CCN(c5ccc(F)cc5)CC4)c(F)cc3c2=O)c1 |  | inactive: -2.6% |
| Cc1ccc(S(=O)(=O)NCCCNS(C)(=O)=O)cc1 |  | inactive: -2.61% |
| COc1cc(Cl)c(C)cc1NC(=S)NN | inconclusive: 35.5 µM [inhibitor, single point] |  |
